Experimental data from the supplement of paper PMC11876631.
± gives the standard deviation of the averaged measurements. Laboratory Escherichia coli strains with one amino-acid change in an essential protein, pooled on minimal glucose agar with carbenicillin or gentamicin at twice the control MIC (plus kanamycin and chloramphenicol for the plasmids), 48 h. Fold change of barcode share against drug-free plates; higher = less susceptible. Active = above 20 in both replicates (the paper's putatively resistant). '<' = one read or none on drug, '>' = one read or none on a drug-free plate. Shares are relative, so most strains fall below 1 when a few take over. Listed are strains with at least 15 reads on both drug-free plates, and hits; most hits rest on fewer reference reads. Replicate rank correlation about 0.5. Edits are read from barcodes.

B1: dfp V311W (protein)
chain: MSLAGKKIVLGVSGGIAAYKTPELVRRLRDRGADVRVAMTEAAKAFITPLSLQAVSGYPVSDSLLDPAAEAAMGHIELGKWADLVILAPATADLIARVAAGMANDLVSTICLATPAPVAVLPAMNQQMYRAAATQHNLEVLASRGLLIWGPDSGSQACGDIGPGRMLDPLTIVDMAVAHFSPVNDLKHLNIMITAGPTREPLDPVRYISNHSSGKMGFAIAAAAARRGANVTLVSGPVSLPTPPFVKRVDVMTALEMEAAVNASVQQQNIFIGCAAVADYRAATVAPEKIKKQATQGDELTIKMVKNPDIWAGVAALKDHRPYVVGFAAETNNVEEYARQKRIRKNLDLICANDVSQPTQGFNSDNNALHLFWQDGDKVLPLERKELLGQLLLDEIVTRYDEKNRR
B2: dfp V311Q (protein)
chain: MSLAGKKIVLGVSGGIAAYKTPELVRRLRDRGADVRVAMTEAAKAFITPLSLQAVSGYPVSDSLLDPAAEAAMGHIELGKWADLVILAPATADLIARVAAGMANDLVSTICLATPAPVAVLPAMNQQMYRAAATQHNLEVLASRGLLIWGPDSGSQACGDIGPGRMLDPLTIVDMAVAHFSPVNDLKHLNIMITAGPTREPLDPVRYISNHSSGKMGFAIAAAAARRGANVTLVSGPVSLPTPPFVKRVDVMTALEMEAAVNASVQQQNIFIGCAAVADYRAATVAPEKIKKQATQGDELTIKMVKNPDIQAGVAALKDHRPYVVGFAAETNNVEEYARQKRIRKNLDLICANDVSQPTQGFNSDNNALHLFWQDGDKVLPLERKELLGQLLLDEIVTRYDEKNRR
B3: dfp V311D (protein)
chain: MSLAGKKIVLGVSGGIAAYKTPELVRRLRDRGADVRVAMTEAAKAFITPLSLQAVSGYPVSDSLLDPAAEAAMGHIELGKWADLVILAPATADLIARVAAGMANDLVSTICLATPAPVAVLPAMNQQMYRAAATQHNLEVLASRGLLIWGPDSGSQACGDIGPGRMLDPLTIVDMAVAHFSPVNDLKHLNIMITAGPTREPLDPVRYISNHSSGKMGFAIAAAAARRGANVTLVSGPVSLPTPPFVKRVDVMTALEMEAAVNASVQQQNIFIGCAAVADYRAATVAPEKIKKQATQGDELTIKMVKNPDIDAGVAALKDHRPYVVGFAAETNNVEEYARQKRIRKNLDLICANDVSQPTQGFNSDNNALHLFWQDGDKVLPLERKELLGQLLLDEIVTRYDEKNRR
B4: dfp L347A (protein)
chain: MSLAGKKIVLGVSGGIAAYKTPELVRRLRDRGADVRVAMTEAAKAFITPLSLQAVSGYPVSDSLLDPAAEAAMGHIELGKWADLVILAPATADLIARVAAGMANDLVSTICLATPAPVAVLPAMNQQMYRAAATQHNLEVLASRGLLIWGPDSGSQACGDIGPGRMLDPLTIVDMAVAHFSPVNDLKHLNIMITAGPTREPLDPVRYISNHSSGKMGFAIAAAAARRGANVTLVSGPVSLPTPPFVKRVDVMTALEMEAAVNASVQQQNIFIGCAAVADYRAATVAPEKIKKQATQGDELTIKMVKNPDIVAGVAALKDHRPYVVGFAAETNNVEEYARQKRIRKNADLICANDVSQPTQGFNSDNNALHLFWQDGDKVLPLERKELLGQLLLDEIVTRYDEKNRR
B5: adk I4W (protein)
chain: MRIWLLGAPGAGKGTQAQFIMEKYGIPQISTGDMLRAAVKSGSELGKQAKDIMDAGKLVTDELVIALVKERIAQEDCRNGFLLDGFPRTIPQADAMKEAGINVDYVLEFDVPDELIVDRIVGRRVHAPSGRVYHVKFNPPKVEGKDDVTGEELTTRKDDQEETVRKRLVEYHQMTAPLIGYYSKEAEAGNTKYAKVDGTKPVAEVRADLEKILG
B6: dfp L347Q (protein)
chain: MSLAGKKIVLGVSGGIAAYKTPELVRRLRDRGADVRVAMTEAAKAFITPLSLQAVSGYPVSDSLLDPAAEAAMGHIELGKWADLVILAPATADLIARVAAGMANDLVSTICLATPAPVAVLPAMNQQMYRAAATQHNLEVLASRGLLIWGPDSGSQACGDIGPGRMLDPLTIVDMAVAHFSPVNDLKHLNIMITAGPTREPLDPVRYISNHSSGKMGFAIAAAAARRGANVTLVSGPVSLPTPPFVKRVDVMTALEMEAAVNASVQQQNIFIGCAAVADYRAATVAPEKIKKQATQGDELTIKMVKNPDIVAGVAALKDHRPYVVGFAAETNNVEEYARQKRIRKNQDLICANDVSQPTQGFNSDNNALHLFWQDGDKVLPLERKELLGQLLLDEIVTRYDEKNRR
B7: dfp L347P (protein)
chain: MSLAGKKIVLGVSGGIAAYKTPELVRRLRDRGADVRVAMTEAAKAFITPLSLQAVSGYPVSDSLLDPAAEAAMGHIELGKWADLVILAPATADLIARVAAGMANDLVSTICLATPAPVAVLPAMNQQMYRAAATQHNLEVLASRGLLIWGPDSGSQACGDIGPGRMLDPLTIVDMAVAHFSPVNDLKHLNIMITAGPTREPLDPVRYISNHSSGKMGFAIAAAAARRGANVTLVSGPVSLPTPPFVKRVDVMTALEMEAAVNASVQQQNIFIGCAAVADYRAATVAPEKIKKQATQGDELTIKMVKNPDIVAGVAALKDHRPYVVGFAAETNNVEEYARQKRIRKNPDLICANDVSQPTQGFNSDNNALHLFWQDGDKVLPLERKELLGQLLLDEIVTRYDEKNRR

The proteins below were run against Escherichia coli (laboratory strain) (assay: barcode share on antibiotic plates over drug-free plates; higher = less susceptible). Details: antibiotic: carbenicillin; 2× MIC (3.1 µg/mL).
Procedure: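 A pool of E. coli strains, each edited to carry one amino-acid change in an essential protein, was grown for 48 h on minimal glucose agar with or without antibiotic; strain barcodes were sequenced; mean of two replicates.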

Protein	fold change of barcode share
B1	0.308 ± 0.04
B2	0.287 ± 0.093
B3	0.176 ± 0.13
B4	0.268 ± 0.1
B5	0.663 ± 0.13
B6	0.307 ± 0.24
B7	0.536 ± 0.19

Same assay, conditions: antibiotic: gentamicin; 2× MIC (MIC 0.45 µg/mL)

Protein	fold change of barcode share
B1	< 0.00854
B2	0.0225 ± 0.024
B3	< 0.0142
B4	< 0.00543
B6	< 0.0064
B7	< 0.00797
